Results: the supplement of paper PMC4967469
IC50 is the fitted dose that halves viability relative to control wells, and lower means more sensitive; a limit (>, <) means that the fit lies beyond the doses tested. AUC sums up the same curve from the lowest dose to the 256-fold higher top dose; the more sensitive the line, the further below 1. For part of these data: The top dose, if marked as inferred, was calculated from the reported fits. For part of these data: Drugs with an entry number were screened twice under separate entries, and the two screens often disagree.

Assays:
Test in all cases: Viability of human cancer cell lines after 72 h of drug (GDSC screen)
[1] = compound: COc1cc(O)c2c(c1)/C=C/C[C@H](O)[C@H](O)C(=O)/C=C\C[C@H](C)OC2=O [(5Z)-7-Oxozeaenol]; conditions: top dose 10 µM; top dose inferred
Description: (§1)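 Human cancer cell lines in 384-well plates, medium with 10% serum, drug for 72 h over a 256-fold dose range (nine 2-fold or five 4-fold steps up to the top dose). Adherent lines were fixed and stained with the nucleic acid dye Syto60, suspension lines read with resazurin; signal relative to control wells, capped at 0 and 100%. One two-parameter sigmoid per drug and line, fitted in a mixed model over all curves with the slope shared within a line.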

[2] = compound: COc1cc(N2CCC(O)CC2)ccc1Nc1cc(Nc2ccccc2S(=O)(=O)C(C)C)c2cc[nH]c2n1 [MPS-1-IN-1]; conditions: top dose 20 µM; top dose inferred
Description: as §1

[3] = compound: COc1nc(C)cnc1NS(=O)(=O)c1cccnc1-c1ccc(-c2nnco2)cc1 [Zibotentan]; conditions: top dose 20 µM; top dose inferred
Description: as §1

[4] = compound: C[C@]1(c2nc3c(C(N)=O)cccc3[nH]2)CCCN1 [ABT-888]; conditions: top dose 5 µM; top dose inferred
Description: as §1

[5] = compound: Cc1ccc(F)c(NC(=O)Nc2ccc(-c3cccc4[nH]nc(N)c34)cc2)c1 [ABT-869]; conditions: top dose 1.024 µM; top dose inferred
Description: as §1

[6] = compound: COc1cc2ncnc(-n3nc(-c4ccccn4)nc3N)c2cc1OC [CP466722]; conditions: top dose 16 µM; top dose inferred
Description: as §1

[7] = compound: CCn1c(-c2nonc2N)nc2cnc(Oc3cccc(NC(=O)c4ccc(OCCN5CCOCC5)cc4)c3)cc21 [GSK269962A]; conditions: top dose inferred
Description: as §1

[8] = compound: C=CC(=O)Nc1cc(-n2c(=O)ccc3cnc4ccc(-c5cn[nH]c5)cc4c32)ccc1C [QL-X-138]; conditions: top dose 10.24 µM; top dose inferred
Description: as §1

[9] = compound: Cc1ccc(-c2c(C(=O)CCl)n(CCCO)c3ncnc(N)c23)cc1 [CMK]; conditions: top dose 4 µM; top dose inferred
Description: as §1

[10] = compound: Cc1cnc(-c2cnc(NCCNc3ccc(C#N)cn3)nc2-c2ccc(Cl)cc2Cl)[nH]1 [CHIR-99021]
Description: as §1

[11] = compound: Nc1ccn([C@@H]2O[C@H](CO)[C@@H](O)[C@@H]2O)c(=O)n1 [Cytarabine]; conditions: top dose 2 µM
Description: as §1

[12] = compound: O=c1cc(-c2cccc3c2Sc2ccccc2S3)oc(N2CCOCC2)c1 [KU-55933]; conditions: top dose 10 µM
Description: as §1

[13] = compound: C/C=C(/C)C(=O)O[C@H]1C(C)=C2[C@H]([C@@H]1OC(=O)CCCCCCC)[C@@](C)(OC(C)=O)C[C@H](OC(=O)CCC)[C@@]1(O)[C@H]2OC(=O)[C@@]1(C)O [Thapsigargin]; conditions: top dose 0.512 µM; top dose inferred
Description: as §1

[14] = top dose 2.5 µM, screen: GDSC drug entry 127
[15] = top dose 5 µM, screen: GDSC drug entry 1192
[16] = top dose 2.56 µM, screen: GDSC drug entry 154
[17] = top dose 10 µM, screen: GDSC drug entry 1241, top dose inferred

Row | Cell Line | AUC [1] | IC50 [1] | AUC [2] | IC50 [2] | AUC [3] | IC50 [3] | AUC [4] | IC50 [4] | AUC [5] | IC50 [5] | AUC [6] | IC50 [6] | AUC [7, 14] | IC50 [7, 14] | AUC [7, 15] | IC50 [7, 15] | AUC [8] | IC50 [8] | AUC [9] | IC50 [9] | AUC [10, 16] | IC50 [10, 16] | AUC [10, 17] | IC50 [10, 17] | AUC [11] | IC50 [11] | AUC [12] | IC50 [12] | AUC [13] | IC50 [13]
1 | ME-1 (acute myeloid leukaemia, suspension) | 0.729 | 2.95 µM | 0.871 | > 20 µM | 0.978 | > 20 µM | 0.984 | > 5 µM | 0.986 | > 1.02 µM | 0.885 | > 16 µM | 0.989 | > 2.5 µM | 0.983 | > 5 µM | 0.898 | > 10.2 µM | 0.969 | > 4 µM | 0.989 | > 2.56 µM | 0.987 | > 10 µM | 0.955 | > 2 µM | 0.976 | > 10 µM | 0.832 | 0.36 µM
2 | MEG-01 (chronic myeloid leukaemia, suspension) | 0.553 | 0.863 µM | 0.927 | > 20 µM | 0.928 | > 20 µM | 0.985 | > 5 µM | 0.98 | > 1.02 µM | 0.569 | 1.53 µM | 0.986 | > 2.5 µM | 0.902 | > 5 µM | 0.849 | 7.01 µM | 0.936 | > 4 µM | 0.945 | > 2.56 µM | 0.874 | 8.72 µM | 0.72 | 0.503 µM | 0.971 | > 10 µM | 0.314 | 0.01 µM
3 | MFH-ino (soft tissue, adherent) | 0.571 | 1.01 µM | 0.932 | > 20 µM | 0.983 | > 20 µM | 0.975 | > 5 µM | 0.983 | > 1.02 µM | 0.91 | > 16 µM | 0.636 | 0.398 µM | 0.829 | 3.88 µM | 0.792 | 5.54 µM | 0.913 | > 4 µM | 0.968 | > 2.56 µM | 0.98 | > 10 µM | 0.35 | 0.0445 µM | 0.983 | > 10 µM | 0.233 | 0.00459 µM
4 | MFM-223 (breast, adherent) | 0.686 | 2.06 µM | 0.968 | > 20 µM | 0.988 | > 20 µM | 0.989 | > 5 µM | 0.986 | > 1.02 µM | 0.862 | 13.5 µM | 0.985 | > 2.5 µM | 0.719 | 1.29 µM | 0.794 | 4.64 µM | 0.962 | > 4 µM | 0.986 | > 2.56 µM | 0.978 | > 10 µM | 0.788 | 0.867 µM | 0.979 | > 10 µM | 0.959 | > 0.512 µM
